Each structure is given as a SMILES string. Some results are limits rather than exact numbers.

The subject of the first assay is Plasmopara viticola—PLASVI. Kind of assay: whole plant or invertebrate. In kind it is in vivo. Conditions: Plasmopara, 24 h, read-out: PLASVI in vivo 1 Day Protectant, 100 ppm, 24 hour protectant, grape; control of fungal infection vs untreated plants.
For `COc1ccnc(C(=O)NC2CC(C)(C)CC(C)(C(=O)c3ccccc3)C2)c1O` (stereo not shown) [Compound 260], the pest or weed control at 100 ppm lay within 25 to 74%.

Turning to `COc1ccnc(C(=O)NC2COC3(CC(C)(C)CC(C)(C)C3)OC2)c1O` [Compound 315], the pest or weed control at 100 ppm is below 25%. On the same count and under the same terms, as for `O=C(Nc1cccc(C(F)(F)F)c1)c1ncccc1O` [Compound 214], the figure is 25 to 74%.

In the case of `COc1ccnc(C(=O)NC2CC(C)(C)/C=C\CC(C)(C)C2)c1O` (stereo not shown) [Compound 283], the pest or weed control at 100 ppm was below 25%. Still for that read-out and setting: as for `COc1ccnc(C(=O)NC2CSCC(c3ccccc3)C2)c1O` (stereo not shown) [Compound 324], the figure is 25 to 74%; as for `COc1ccnc(C(=O)NC2CC(C)(C)CCCC2C)c1O` (stereo not shown) [Compound 277], below 25%. Regarding `COc1ccnc(C(=O)NC2C[C@H](C)O[C@@](C)(Cc3ccccc3)C2)c1O` (stereo partly shown) [Compound 312], the pest or weed control at 100 ppm is below 25%. Still for that read-out and setting: as for `COc1ccnc(C(=O)NC2CC3OC2C(C)C(OC(=O)C(C)C)C3C)c1O` (stereo not shown) [Compound 320], the figure is below 25%; as for `COc1ccnc(C(=O)NC2CC3CCC2C3)c1O` (stereo not shown) [Compound 287], 25 to 74%; as for `COc1ccnc(C(=O)NC2C3(C)CCC(C3)C2(C)C)c1O` (stereo not shown) [Compound 288], 25 to 74%. On to `COc1ccnc(C(=O)NC2CCCC2=O)c1O` (stereo not shown) [Compound 249], for which the pest or weed control at 100 ppm is below 25%. The same measure, in the same setting: next, `O=C(NCCc1ccc(Cl)cc1)c1ncccc1O` [Compound 233, N-(2-(4-CHLOROPHENYL)ETHYL)-3-HYDROXYPYRIDINE-2-CARBOXAMIDE]: 25 to 74%.

The same assay, now with this note: Plasmopara, 24 h, read-out: PLASVI in vivo 1 Day Protectant, 100 ppm, grape, 24 hour protectant, % control of fungal infection vs untreated plants.
Turning to `COc1ccnc(C(=O)N[C@H]2COC(=O)[C@H](Cc3ccccc3)[C@@H](OC(=O)C(C)C)[C@H](C)OC2=O)c1OS(=O)(=O)c1ccc(C)cc1` [Compound 722], the pest or weed control at 100 ppm is below 25%. On the same count and under the same terms, next, `COc1ccnc(C(=O)Nc2ccc(Oc3ccc(C(F)(F)F)cc3)cc2)c1OS(C)(=O)=O` [Compound 723]: 25 to 74%. The same measure, in the same setting: as for `COCC(=O)Oc1c(OC)ccnc1C(=O)N[C@H]1COC(=O)[C@H](Cc2ccccc2)[C@@H](OC(=O)C(C)C)[C@H](C)OC1=O` [Compound 653], the figure is below 25%; as for `COc1ccnc(C(=O)N[C@H]2COC(=O)[C@H](Cc3ccccc3)[C@@H](OC(=O)C(C)C)[C@H](C)OC2=O)c1OC(=O)CCCBr` [Compound 625], below 25%. Same read-out and setting: next, `COCCC(=O)Oc1c(OC)ccnc1C(=O)N[C@H]1COC(=O)[C@H](Cc2ccccc2)[C@@H](OC(=O)C(C)(C)C)[C@H](C)OC1=O` [Compound 703]: below 25%. As to `COCCC(=O)Oc1c(OC)ccnc1C(=O)Nc1ccc(C(=O)c2cccc(C(F)(F)F)c2)cc1` [Compound 706], the pest or weed control at 100 ppm fell in the range of 25 to 74%. The same measure, in the same setting: next, `COc1ccnc(C(=O)N[C@H]2COC(=O)[C@H](Cc3ccccc3)[C@@H](OC(=O)C(C)C)[C@H](C)OC2=O)c1OC(=O)CCc1ccccc1` [Compound 650]: below 25%.

On to `CCOC(=O)Oc1c(OC)ccnc1C(=O)N[C@H]1COC(=O)[C@H](Cc2ccccc2)[C@@H](OC(=O)C(C)C)[C@H](C)OC1=O` [Compound 679], for which the pest or weed control at 100 ppm fell in the range of 25 to 74%. Still for that read-out and setting: as for `CCCC(=O)Oc1c(OC)ccnc1C(=O)N[C@H]1COC(=O)[C@H](Cc2ccccc2)[C@@H](OC(=O)C(C)C)[C@H](C)OC1=O` [Compound 599], the figure is below 25%.

The same assay, now with this note: Plasmopara, 24 h, read-out: PLASVI in vivo 1 Day Protectant, 100 ppm, grape, 24 hour protectant; control of fungal infection vs untreated plants.
For the compound `COc1ccnc(C(=O)NC2COC(=O)[C@H]3CCCC[C@@H]3C(=O)OC2)c1O` [Compound 377], the pest or weed control at 100 ppm is below 25%. On the same count and under the same terms, next, `COc1ccnc(C(=O)N[C@@H]2[C@@H](O)[C@H](O)[C@@H](CO)O[C@@H]2O)c1O` [Compound 334, N-(3-HYDROXY-4-METHOXY-2-PYRIDYLCARBONYL)-2-AMINO-2-DEOXY-alpha-D-GLUCOPYRANOSE]: below 25%. Still for that read-out and setting: next, `COc1ccccc1Oc1cccc(NC(=O)c2nccc(OC)c2O)c1` [Compound 430]: below 25%; `COc1ccnc(C(=O)Nc2cccc(Sc3ccc(C(F)(F)F)cc3)c2)c1O` [Compound 444]: 25 to 74%; `COc1ccnc(C(=O)Nc2cc(C)c(OC(=O)c3ccc(C(F)(F)F)cc3)c(C)c2)c1O` [Compound 457]: below 25%. Still for that read-out and setting: as for `CO/N=C(/c1ccc(NC(=O)c2nccc(OC)c2O)cc1)c1cccc(C(F)(F)F)c1` [Compound 408], the figure is 25 to 74%; as for `COc1ccnc(C(=O)Nc2ccc(OC3CC(C)(C)CC(C)(C)C3)cc2)c1O` [Compound 458], below 25%. As to `COc1ccnc(C(=O)Nc2cccc(Oc3ccc(C)cc3)c2)c1O` [Compound 414], the pest or weed control at 100 ppm is below 25%.

In the case of `COc1ccnc(C(=O)N[C@H](C(=O)O[C@@H](C)[C@H](OC(=O)C(C)C)[C@@H](Cc2ccccc2)C(=O)OCc2ccccc2)[C@@H](C)OC(C)=O)c1O` [Compound 361], the pest or weed control at 100 ppm lay in the range of 25 to 74%. For `COc1ccnc(C(=O)N[C@@H]2OC[C@@H](OCc3ccccc3)[C@H](OCc3ccccc3)[C@H]2OCc2ccccc2)c1O` [Compound 332], the pest or weed control at 100 ppm was below 25%. Still for that read-out and setting: as for `COc1ccnc(C(=O)N[C@H]2COC(=O)[C@H](Cc3ccccc3)[C@@H](O)[C@H](C)OC2=O)c1O` [Compound 383], the figure is 25 to 74%; as for `CCOC(=O)c1cc(Oc2ccc(C(F)(F)F)cc2)ccc1NC(=O)c1nccc(OC)c1O` [Compound 427], 25 to 74%; as for `COc1ccnc(C(=O)NC2COC(=O)CC(c3ccccc3)C(=O)OC2)c1O` (stereo not shown) [Compound 375], 25 to 74%. Still for that read-out and setting: as for `COc1ccnc(C(=O)NC(COC(=O)CCc2ccccc2)C(=O)OC(C)COC(=O)C(C)C)c1O` (stereo not shown) [Compound 358], the figure is below 25%; as for `COc1ccnc(C(=O)Nc2ccc(Oc3cccc(Cl)c3)cc2)c1O` [Compound 442], below 25%; as for `COc1ccnc(C(=O)Nc2cc(C)c(OC(=O)C(C)C)c(C)c2)c1O` [Compound 455], 25 to 74%. On the same count and under the same terms, next, `CCCCCCCCCCCCCCCCCC(=O)O[C@H]1[C@H](C)OC(=O)[C@@H](NC(=O)c2nccc(OC)c2O)COC(=O)[C@@H]1Cc1ccccc1` [Compound 398]: below 25%. `COc1ccnc(C(=O)Nc2ccc(/C(=N/O)c3cccc(C(F)(F)F)c3)cc2)c1O` [Compound 407]: the pest or weed control at 100 ppm is below 25%. Consider `COc1ccnc(C(=O)NC(COC(=O)CC(C)OC(=O)C(C)C)C(=O)OC(C)C)c1O` (stereo not shown) [Compound 352], for which the pest or weed control at 100 ppm was in the range of 25 to 74%. On the same count and under the same terms, next, `COc1ccnc(C(=O)Nc2ccc(Oc3ccc(C#N)cc3)cc2)c1O` [Compound 422]: below 25%; `CCCCCCCCCCCCC(=O)O[C@H]1[C@H](C)OC(=O)[C@@H](NC(=O)c2nccc(OC)c2O)COC(=O)[C@@H]1Cc1ccccc1` [Compound 397]: below 25%.

In the case of `COc1ccnc(C(=O)Nc2ccccc2Oc2ccccc2C#N)c1O` [Compound 418], the pest or weed control at 100 ppm is below 25%. Same read-out and setting: next, `COc1ccnc(C(=O)N[C@H]2COC(=O)[C@H](Cc3ccccc3)[C@@H](OC(=O)Cc3ccccc3)[C@H](C)OC2=O)c1O` [Compound 395]: below 25%.

The same assay, now with this note: Plasmopara, 24 h, read-out: PLASVI in vivo 1 Day Protectant, grape plants, 100 ppm, 24 hour protectant; control of fungal infection vs untreated plants.
As to `CC(C)C(=O)O[C@H]1[C@H](C)OC(=O)[C@@H](NC(=O)c2cncnc2O)COC(=O)[C@@H]1Cc1ccccc1` [Compound 540], the pest or weed control at 100 ppm was below 25%. The same measure, in the same setting: as for `O=C(Oc1cccnc1C(=O)NC1CCC(OC(=O)c2ccccc2)CC1)c1ccccc1` (stereo not shown) [Compound 567], the figure is below 25%. Take `CC(NC(=O)c1ccncc1O)c1ccc(OC(F)(F)F)cc1` (stereo not shown) [Compound 511]: the pest or weed control at 100 ppm lay within 25 to 74%. Take `CC(C)C(=O)O[C@H]1[C@H](C)OC(=O)[C@@H](NC(=O)c2nnc(O)nc2O)COC(=O)[C@@H]1Cc1ccccc1` [Compound 544]: the pest or weed control at 100 ppm was below 25%.

With `COc1ccnc(C(=O)Nc2cccc(Oc3ccc(C(F)(F)F)cc3)n2)c1O` [Compound 469], the pest or weed control at 100 ppm is below 25%. Take `N#Cc1ccc(Oc2cccc(NC(=O)c3nc(Br)ccc3O)c2)cc1` [Compound 500]: the pest or weed control at 100 ppm was below 25%.

`O=C(Nc1ccc(Oc2ccccc2C(F)(F)F)cc1)c1nc(Br)ccc1O` [Compound 497]: the pest or weed control at 100 ppm was below 25%. On the same count and under the same terms, next, `COc1ccnc(C(=O)NC(COC(=O)C(Cc2ccccc2)C(C)OC(=O)C(C)C)C(=O)OC(C)C)c1OC(C)=O` (stereo not shown) [Compound 589]: 25 to 74%; `COc1ccnc(C(=O)Nc2ccc(Oc3cccc(C(F)(F)F)c3)nc2)c1O` [Compound 471]: below 25%. Turning to `COc1ccnc(C(=O)NC2CC(C)(C)/C=C\CC(C)(C)C2)c1OC(C)=O` (stereo not shown) [Compound 580], the pest or weed control at 100 ppm was below 25%. As to `CSc1ccnc(C(=O)NC2COC(=O)[C@H](Cc3ccccc3)[C@@H](OC(=O)C(C)C)[C@H](C)OC2=O)c1O` (stereo partly shown) [Compound 478], the pest or weed control at 100 ppm was 25 to 74%. For the compound `CSc1ccnc(C(=O)NC2CC(C)(C)CC(C)(C)C2)c1O` [Compound 477], the pest or weed control at 100 ppm is below 25%.

Turning to `O=C(Nc1ccccc1Oc1cccc(C(F)(F)F)c1)c1nc(Br)ccc1O` [Compound 492], the pest or weed control at 100 ppm is below 25%. In the case of `CC(C)(C)C1CCC(NC(=O)c2cnccc2O)CC1` (stereo not shown) [Compound 504], the pest or weed control at 100 ppm was below 25%. The same measure, in the same setting: as for `CC(NC(=O)c1ccncc1O)c1ccc(Cl)cc1` (stereo not shown) [Compound 509], the figure is 25 to 74%. On the same count and under the same terms, as for `O=C(Nc1ccccc1Oc1ccc(C(F)(F)F)cc1)c1nc(Br)ccc1O` [Compound 493], the figure is below 25%. The same measure, in the same setting: next, `COc1ccnc(C(=O)N[C@@H]2OC[C@@H](OCc3ccccc3)[C@H](OCc3ccccc3)[C@H]2OCc2ccccc2)c1OC(C)=O` [Compound 592]: below 25%.

Values taken from US6706740B2, “Fungicidal heterocyclic aromatic amides and their compositions, methods of use and preparation” (Dow AgroSciences LLC, priority 1999, dated 2004).
